{"source": "patent US20110020434A1", "about": "“NA[…]-[…] COMPOSITIONS” (priority 2005, published 2011)", "origin": "cited, not measured here", "conditions": "Loehr et al. 1968; cited from earlier work"}
{"substance": "arsenous acid [H3AsO3]", "values": [{"measurement": "pKa", "result": 9.3}]}
